From patent US20100260668A1 (published 2010)

B1: DVD260 (bispecific antibody, human IgG1, kappa)
heavy: QVQLQQSGAELVKPGASVKISCKASGYTFTDYYINWVKLAPGQGLEWIGWIYPGSGNTKYNEKFKGKATLTIDTSSSTAYMQLSSLTSEDTAVYFCVRDSPFFDYWGQGTLLTVSSASTKGPEVQLVESGGGLVQPGGSLRLSCAASGYTFTNYGMNWVRQAPGKGLEWVGWINTYTGEPTYAADFKRRFTFSLDTSKSTAYLQMNSLRAEDTAVYYCAKYPHYYGSSHWYFDVWGQGTLVTVSS[omitted - human IgG1 constant region]
light: DIVLTQSPDSLAVSLGERVTMNCKSSQSLLNSGMRKSFLAWYQQKPGQSPKLLIYWASTRESGVPDRFTGSGSGTDFTLTISSVQAEDVAVYYCKQSYHLFTFGSGTKLEIKRTVAAPDIQMTQSPSSLSASVGDRVTITCSASQDISNYLNWYQQKPGKAPKVLIYFTSSLHSGVPSRFSGSGSGTDFTLTISSLQPEDFATYYCQQYSTVPWTFGQGTKVEIKRTVAAPSVFIFPPSDEQLKSGTASVVCLLNNFYPREAKVQWKVDNALQSGNSQESVTEQDSKDSTYSLSSTLTLSKADYEKHKVYACEVTHQGLSSPVTKSFNRGEC
notes: N-terminal VD PlGF, C-terminal VD VEGF; also called VD260H; VD260L
B2: DVD595 (bispecific antibody, human IgG1, kappa)
heavy: B1 heavy
light: DIVLTQSPDSLAVSLGERVTMNCKSSQSLLNSGMRKSFLAWYQQKPGQSPKLLIYWASTRESGVPDRFTGSGSGTDFTLTISSVQAEDVAVYYCKQSYHLFTFGSGTKLEIKRTVAAPSVFIFPPDIQMTQSPSSLSASVGDRVTITCSASQDISNYLNWYQQKPGKAPKVLIYFTSSLHSGVPSRFSGSGSGTDFTLTISSLQPEDFATYYCQQYSTVPWTFGQGTKVEIKRTVAAPSVFIFPPSDEQLKSGTASVVCLLNNFYPREAKVQWKVDNALQSGNSQESVTEQDSKDSTYSLSSTLTLSKADYEKHKVYACEVTHQGLSSPVTKSFNRGEC
notes: also called DVD595VH; DVD595VL
B3: DVD587 (bispecific antibody, human IgG1, kappa)
heavy: QVQLQQSGAELVKPGASVKISCKASGYTFTDYYINWVKLAPGQGLEWIGWIYPGSGNTKYNEKFKGKATLTIDTSSSTAYMQLSSLTSEDTAVYFCVRDSPFFDYWGQGTLLTVSSASTKGPSVFPLAPEVQLVESGGGLVQPGGSLRLSCAASGYTFTNYGMNWVRQAPGKGLEWVGWINTYTGEPTYAADFKRRFTFSLDTSKSTAYLQMNSLRAEDTAVYYCAKYPHYYGSSHWYFDVWGQGTLVTVSS[omitted - human IgG1 constant region]
light: B1 light
notes: also called DVD587VH; DVD587VL
B4: DVD487 (bispecific antibody, human IgG1, kappa)
heavy: EVQLQQSGPELVKPGASVKMSCKASGYTFTSYVINWVKQKPGQGLEWIGLINPYNDGTKYNEKFKVKATLTSDKSSSTAYMELSSLTSEDSAVYYCASYYYGSRYYFDYWGQGTTLTVSSASTKGPEVQLVESGGGLVQPGGSLRLSCAASGYTFTNYGMNWVRQAPGKGLEWVGWINTYTGEPTYAADFKRRFTFSLDTSKSTAYLQMNSLRAEDTAVYYCAKYPHYYGSSHWYFDVWGQGTLVTVSS[omitted - human IgG1 constant region]
light: DIQMTQSSSYLSVSLGGRVTITCKASDHINNWLAWYQQKPGNAPRLLISGATSLETGVPSRFSGSGSGKDYTLSITSLQTEDVATYYCQQYWSIPLTFGAGTKLELKRTVAAPDIQMTQSPSSLSASVGDRVTITCSASQDISNYLNWYQQKPGKAPKVLIYFTSSLHSGVPSRFSGSGSGTDFTLTISSLQPEDFATYYCQQYSTVPWTFGQGTKVEIKRTVAAPSVFIFPPSDEQLKSGTASVVCLLNNFYPREAKVQWKVDNALQSGNSQESVTEQDSKDSTYSLSSTLTLSKADYEKHKVYACEVTHQGLSSPVTKSFNRGEC
notes: DVD-Ig; HC short, LC short linker; also called DVD487H; DVD487L
B5: DVD469 (bispecific antibody, human IgG1, kappa)
heavy: EVQLVESGGGLVQPGGSLRLSCAASGFTFTDNWISWVRQAPGKGLEWVGYISPNSGFTYYADSVKGRFTISADTSKNTAYLQMNSLRAEDTAVYYCARDNFGGYFDYWGQGTLVTVSSASTKGPSVFPLAPEVQLVESGGGLVQPGGSLRLSCAASGYTFTNYGMNWVRQAPGKGLEWVGWINTYTGEPTYAADFKRRFTFSLDTSKSTAYLQMNSLRAEDTAVYYCAKYPHYYGSSHWYFDVWGQGTLVTVSS[omitted - human IgG1 constant region]
light: DIQMTQSPSSLSASVGDRVTITCRASQDVSTAVAWYQQKPGKAPKLLIYSASFLYSGVPSRFSGSGSGTDFTLTISSLQPEDFATTYYCQQSYTGTVTFGQGTKVEIKRTVAAPSVFIFPPDIQMTQSPSSLSASVGDRVTITCSASQDISNYLNWYQQKPGKAPKVLIYFTSSLHSGVPSRFSGSGSGTDFTLTISSLQPEDFATYYCQQYSTVPWTFGQGTKVEIKRTVAAPSVFIFPPSDEQLKSGTASVVCLLNNFYPREAKVQWKVDNALQSGNSQESVTEQDSKDSTYSLSSTLTLSKADYEKHKVYACEVTHQGLSSPVTKSFNRGEC
notes: DVD-Ig; HC long, LC long linker; also called DVD469H; DVD469L
B6: DVD517 (bispecific antibody, human IgG1, kappa, lambda)
heavy: EVQLQQSGPELEKPGASVKISCKASGYSFTGYNMNWVKQSNGKSLEWIGNIDPYFGGTNYNQKFKGKATLTVDKSSSTAYMQLKSLTSEDSAVYYCARNYDYDGGCFDYWGQGTTLTVSSASTKGPSVFPLAPEVQLVESGGGLVQPGGSLRLSCAASGYTFTNYGMNWVRQAPGKGLEWVGWINTYTGEPTYAADFKRRFTFSLDTSKSTAYLQMNSLRAEDTAVYYCAKYPHYYGSSHWYFDVWGQGTLVTVSS[omitted - human IgG1 constant region]
light: QAVVTQESALTTSPGETVTLTCRSSTGAVTTSNYANWVQEKPDHLFTGLIGGTNNRAPGVPARFSGSLIGDKAALTITGAQTEDEAIYFCALWYSNHWVFGGGTKLTVLGQPKAAPSVTLFPPDIQMTQSPSSLSASVGDRVTITCSASQDISNYLNWYQQKPGKAPKVLIYFTSSLHSGVPSRFSGSGSGTDFTLTISSLQPEDFATYYCQQYSTVPWTFGQGTKVEIKRTVAAPSVFIFPPSDEQLKSGTASVVCLLNNFYPREAKVQWKVDNALQSGNSQESVTEQDSKDSTYSLSSTLTLSKADYEKHKVYACEVTHQGLSSPVTKSFNRGEC
notes: DVD-Ig; HC long, LC long linker; also called DVD517H; DVD517L
B7: DVD044 (bispecific antibody, human IgG1, kappa)
heavy: EVQLVESGGGLVQPGGSLRLSCAASGFTFTDNWISWVRQAPGKGLEWVGYISPNSGFTYYADSVKGRFTISADTSKNTAYLQMNSLRAEDTAVYYCARDNFGGYFDYWGQGTLVTVSSASTKGPEVQLVESGGGLVQPGGSLRLSCAASGYTFTNYGMNWVRQAPGKGLEWVGWINTYTGEPTYAADFKRRFTFSLDTSKSTAYLQMNSLRAEDTAVYYCAKYPHYYGSSHWYFDVWGQGTLVTVSS[omitted - human IgG1 constant region]
light: DIQMTQSPSSLSASVGDRVTITCRASQDVSTAVAWYQQKPGKAPKLLIYSASFLYSGVPSRFSGSGSGTDFTLTISSLQPEDFATTYYCQQSYTGTVTFGQGTKVEIKRTVAAPDIQMTQSPSSLSASVGDRVTITCSASQDISNYLNWYQQKPGKAPKVLIYFTSSLHSGVPSRFSGSGSGTDFTLTISSLQPEDFATYYCQQYSTVPWTFGQGTKVEIKRTVAAPSVFIFPPSDEQLKSGTASVVCLLNNFYPREAKVQWKVDNALQSGNSQESVTEQDSKDSTYSLSSTLTLSKADYEKHKVYACEVTHQGLSSPVTKSFNRGEC
notes: DVD-Ig; HC short, LC short linker; also called DVD044H; DVD044L
B8: DVD579 (bispecific antibody, human IgG1, kappa)
heavy: B3 heavy
light: B2 light
notes: also called DVD579H; DVD579L
B9: DVD511 (bispecific antibody, human IgG1, kappa)
heavy: EVQLQQSGPELEKPGASVKISCKASGYSFTGYNMNWVKQSNGKSLEWIGNIDPYFGGTNYNQKFKGKATLTVDKSSSTAYMQLKSLTSEDSAVYYCARNYDYDGGCFDYWGQGTTLTVSSASTKGPEVQLVESGGGLVQPGGSLRLSCAASGYTFTNYGMNWVRQAPGKGLEWVGWINTYTGEPTYAADFKRRFTFSLDTSKSTAYLQMNSLRAEDTAVYYCAKYPHYYGSSHWYFDVWGQGTLVTVSS[omitted - human IgG1 constant region]
light: QAVVTQESALTTSPGETVTLTCRSSTGAVTTSNYANWVQEKPDHLFTGLIGGTNNRAPGVPARFSGSLIGDKAALTITGAQTEDEAIYFCALWYSNHWVFGGGTKLTVLGQPKAAPDIQMTQSPSSLSASVGDRVTITCSASQDISNYLNWYQQKPGKAPKVLIYFTSSLHSGVPSRFSGSGSGTDFTLTISSLQPEDFATYYCQQYSTVPWTFGQGTKVEIKRTVAAPSVFIFPPSDEQLKSGTASVVCLLNNFYPREAKVQWKVDNALQSGNSQESVTEQDSKDSTYSLSSTLTLSKADYEKHKVYACEVTHQGLSSPVTKSFNRGEC
notes: DVD-Ig; HC short, LC short linker; also called DVD511H; DVD511L

Legend:
PlGF (Placental GF) = target: T1, PlGF (Placental GF) (UniProt P49763-2 21-149, limits assumed); assay: SPR (Biacore); N-terminal VD
T1 sequence (looked up): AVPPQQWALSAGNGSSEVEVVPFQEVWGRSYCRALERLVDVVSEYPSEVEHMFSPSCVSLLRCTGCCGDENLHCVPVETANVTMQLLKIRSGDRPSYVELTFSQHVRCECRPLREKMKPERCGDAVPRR

[1] = target: T2, placental growth factor (PLGF) (UniProt P49763-2 21-149, limits assumed); assay: ligand-receptor binding competition assay, PlGF binding to VEGFR1; N-terminal VD
T2 construct: also called P1GF
T2 sequence (looked up): T1 sequence (looked up)

[2] = target: T3, DLL4 ECD/His tag (R&D 1506-D4-050) (UniProt Q9NR61 partial chain); assay: direct bind ELISA, DLL4 on plate; DLL4 VD N-term.; HC Short, LC Short
T3 construct: extracellular domain; Bought antigen coated on the ELISA plate; not shown: His tag

[3] = target: T3, DLL4 ECD/His tag (R&D 1506-D4-050); assay: direct bind ELISA, DLL4 on plate; DLL4 VD N-term.; HC Long, LC Long

Row | Binder | IC50 [1] [nM] | EC50 [2] [nM] | other results
1 | B1 | – | – | Kd (PlGF (Placental GF)): 0.012 nM; koff (PlGF (Placental GF)): 5.14e-05 s⁻¹; kon (PlGF (Placental GF)): 4.27e+06 M⁻¹ s⁻¹
2 | B2 | 3.65 | – | –
3 | B3 | 3.65 | – | –
4 | B4 | – | 0.14 | –
5 | B5 | – | – | EC50 [3]: 2.78 nM
6 | B6 | – | – | EC50 [3]: 0.1 nM
7 | B7 | – | 0.25 | –
8 | B8 | 5.84 | – | –
9 | B9 | – | 0.1 | –
